The results in this text go back to PubChem BioAssay (NCI).

SMILES strings stand for the structures.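 Tested at 5 concentrations; 48 h exposure; 96-well plates; endpoints linearly interpolated, else capped at highest concentration. GI50 marks 50% less growth.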 Some entries of the source have several records that differ or are many. The other results are left out here. An entry can have further records. For some of these results: Values that stand side by side are repeats across runs, samples, wells, individuals or studies. What stands in brackets tells the records apart. Letters hold for one entry only.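 The concentration for full growth arrest is given as TGI.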 For some of these results: The tests behind the records often covered other concentration ranges, not given here; a value can be the end of its range.

Test systems include NCI-H522 lung; K-562 leukemia; HCT-15 colon; OVCAR-4 ovarian; ACHN renal; NCI-H226 lung; UACC-257 melanoma.
Holding throughout (assay): NCI-60 cell line screen, 48 h

In the case of `CCn1cc(-c2ccnc3[nH]c(-c4cccc(CN(C)C)c4)cc23)c(-c2ccc(NC(=O)N(C)C)cc2)n1`, the GI50 with NCI-H522 lung is 1.98 µM [sample A, mean of 2 tests] and 171 nM [sample B, 1 test]; with K-562 leukemia, 1.55 µM [sample A, mean of 2 tests] and 125 nM [sample B, 1 test].
As for `CCCCNCCCNCCCNC(=O)c1csc(-c2csc(CCNC(=O)C(NC(=O)C(C)C(O)C(C)NC(=O)C(NC(=O)c3nc(C(CC(N)=O)NCC(N)C(N)=O)nc(N)c3C)C(OC3OC(CO)C(O)C(O)C3OC3OC(CO)C(O)C(OC(N)=O)C3O)c3cnc[nH]3)C(C)O)n2)n1` (configuration not stated), the TGI was 7.88 µM and > 100 µM with HCT-15 colon; 2.18 µM and 25.6 µM with OVCAR-4 ovarian; 5.05 µM and 172 nM with ACHN renal; 1.4 µM and 15.6 µM in the test with NCI-H226 lung; 3.93 µM and > 95.3 µM with UACC-257 melanoma.
